# Measurements taken from the supplement of paper PMC12217912.
# The list shows a part of the results. The full chains were built here from the parent and the listed change. Values near 0.05 are background.
# B1: TEV protease; numbered along this chain (parent)
# chain: MGESLFKGPRDYNPISSSICHLTNESDGHTTSLYGIGFGPFIITNKHLFRRNNGTLVVQSLHGVFKVKDTTTLQQHLVDGRDMIIIRMPKDFPPFPQKLKFREPQREERICLVTTNFQTKSMSSMVSDTSCTFPSGDGIFWKHWIQTKDGQCGSPLVSTRDGFIVGIHSASNFTNTNNYFTSVPKNFMELLTNQEAQQWVSGWRLNADSVLWGGHKVFMVKPEEPFQPVKEATQL
# Variants of: B1
# Test: raw area under fraction-flipped curve 0-4 h after induction (AUC4h, not background-subtracted), DNA-recorder readout of cleavage of the substrate (dimensionless); higher = more cleavage of the substrate by the protease variant
# Conditions: temperature: 34 °C; time window: 0-4 h after rhamnose induction
# Procedure: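 In vivo DNA recorder in E. coli TOP10(DE3) ΔrhaA at 34 °C. Each TEVp single-site mutant (parent TEVp 0) is paired with a single-site variant of the 7-mer TEVs (canonical ENLYFQ|S). The substrate sits between flexible linkers in a Bxb1-sfGFP-TEVs-SsrA fusion, so cleavage stabilises Bxb1 and speeds flipping of a recombination array, read by NGS. The value is the raw area under the fraction-flipped curve over 0-4 h after rhamnose induction (AUC4h), with ≥20 reads per time point. It is not background-subtracted; inactive controls average about 0.047.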
# 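Note: Bxb1 expression induced with 0.2% (w/v) L-rhamnose at OD600 near 0.5, cultures sampled hourly, flipped fraction per protease–substrate barcode pair counted by paired-end Illumina sequencing.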
Variant,area with substrate ENLAFQS,area with substrate ENLDFQS,area with substrate ENLFFQS,area with substrate ENLHFQS,area with substrate ENLIFQS,area with substrate ENLKFQS,area with substrate ENLLFQS,area with substrate ENLMFQS,area with substrate ENLNFQS,area with substrate ENLPFQS,area with substrate ENLQFQS,area with substrate ENLSFQS,area with substrate ENLTFQS,area with substrate ENLWFQS,area with substrate ENLCFQS,area with substrate ENLRFQS,area with substrate ENLVFQS,area with substrate ENLEFQS,area with substrate ENLGFQS
L191V,0.0588,0.0698,0.0669,0.0617,0.0712,0.0742,0.0784,0.0665,0.0766,0.0778,0.0656,0.058,0.0548,0.0687,–,–,–,–,–
K216W,0.0651,0.0563,0.0768,0.0749,0.0663,0.069,0.0862,–,–,–,–,0.0491,–,–,0.0691,0.0658,0.071,–,–
A207D,0.0625,0.0616,0.0758,0.0696,0.0766,0.0825,0.0593,0.0639,0.0734,–,0.0666,0.0579,0.0644,–,0.079,0.0611,0.0776,0.0564,–
A207L,0.0524,–,0.0726,–,0.102,0.0555,–,–,–,–,–,0.0517,–,0.0692,0.0554,0.0529,0.0741,–,–
K221M,0.0391,0.0651,0.0759,0.0676,0.0878,0.0804,0.073,0.0684,–,0.0488,–,0.0497,–,0.0631,–,0.0782,0.0862,–,–
K221C,0.0577,0.067,0.0796,0.0518,0.0739,0.0793,0.0687,0.0853,0.0687,0.049,0.0603,0.0589,–,–,–,0.0665,0.0813,0.0516,0.0648
V220Y,0.0383,–,0.0799,0.0705,–,0.0587,–,–,0.0736,0.0529,0.0719,0.0707,–,–,–,0.0669,–,0.0671,–
V220L,0.0547,0.0649,0.0777,–,0.0792,0.0719,0.071,–,0.0694,0.0518,0.0639,0.0586,0.0846,0.05,–,–,0.0748,0.0678,0.0714
P184D,0.0524,0.0512,–,–,–,0.0648,–,–,0.0581,0.0561,0.0377,0.0904,–,–,0.044,0.0715,–,0.0598,0.0627
N178V,0.0565,0.0452,0.071,0.0448,0.0335,–,–,0.0711,0.0645,–,–,0.0535,–,–,0.0538,0.0611,0.044,0.0652,–
A170M,0.0242,–,0.061,–,0.0526,0.0385,–,–,–,–,–,–,–,–,–,–,–,–,–
P222R,0.0795,0.0572,0.0875,0.0644,–,0.0778,–,0.0752,0.0588,0.0579,0.0638,0.0576,–,–,0.0751,–,0.0787,0.0851,0.0693
N175V,0.0524,0.0781,0.0667,0.0607,0.0342,0.0273,0.0483,0.0593,0.0616,0.0447,0.0573,0.0497,–,0.0652,0.0679,0.066,0.0696,–,–
V183S,0.0518,0.0428,0.0958,–,–,0.071,–,0.0669,–,–,0.0598,–,–,–,0.0599,0.0564,–,0.0665,–
S201V,0.0608,0.0601,0.0899,0.0726,–,–,0.0619,–,–,0.0552,0.0879,0.0664,–,–,–,0.078,0.0952,0.0702,–
S201Y,0.0444,0.0509,0.0825,0.0618,–,0.0783,0.0361,–,0.0681,0.0589,–,–,–,0.0666,–,0.0781,0.0786,–,–
S171D,0.037,–,0.0631,0.0606,0.0719,0.059,–,0.072,0.0528,–,0.0728,0.0702,0.0659,0.0565,–,0.0567,–,0.0693,0.0612
S171P,0.0595,0.0501,0.0581,0.0705,0.0504,0.0574,–,–,0.0505,0.0665,–,–,–,0.0693,–,0.058,0.0533,0.0586,0.0651
S169Q,0.0607,0.0625,0.0505,0.0568,0.0565,0.0634,0.0625,0.0425,0.0646,0.0528,0.0669,0.0621,0.0488,0.034,0.0436,0.0608,0.0704,0.0633,0.0568
G202E,0.0622,0.0514,0.065,0.0728,0.0704,0.0627,0.0525,0.0388,0.0487,0.0425,0.0483,0.057,–,0.0633,0.0546,0.0504,0.0599,0.0716,–
F218A,0.0611,0.078,0.062,–,0.0604,0.0545,–,–,0.0777,–,0.0571,–,–,0.0639,0.0634,–,0.0595,0.0669,–
F218K,0.0961,–,–,0.0579,–,0.0564,0.0549,–,0.0555,0.0739,–,0.0528,–,–,–,–,–,–,–
N193W,0.0702,–,–,–,–,0.0663,–,0.064,0.0505,0.0698,–,0.0471,–,–,–,0.0707,–,0.06,–
N193E,0.0465,–,0.0927,0.078,0.0662,0.081,–,–,0.0737,0.0485,0.0694,–,–,0.0538,0.0689,0.0675,–,–,0.07
E189R,0.0692,0.061,0.0796,0.0593,0.0655,0.0687,–,–,0.0658,–,–,0.0588,–,–,–,0.067,–,0.0563,–
E189H,0.0658,0.0566,0.0885,0.0721,–,0.0812,0.0631,–,–,0.0619,–,0.0653,–,0.0621,–,–,–,0.0617,0.0477
E189P,0.0675,–,0.0998,0.0632,0.067,0.0704,0.0743,–,–,0.0632,0.0671,0.0691,–,0.0618,0.0606,–,0.0619,0.0711,–
W203K,0.0596,0.0612,0.0612,–,–,0.0601,0.0532,–,0.0581,0.0683,0.0624,0.043,–,0.0575,–,0.0567,–,0.0586,–
